According to the supplement of paper PMC11741623:
This is one part of the list. Interaction screen of human proteins with wild-type SARS-CoV-2 proteins by split-DHFR complementation in yeast, 1 µg/mL methotrexate. Value = fitness of the pair (three or more lineages) minus that of the viral protein without a human partner, on a scale set by negative (0) and fused positive (1) controls, mean of up to three cultures; higher = more likely to interact. Active = false discovery rate below 0.05 (one-sided t-test) in at least one culture. Nearly all pairs are not hits, and differences among them are mostly noise (correlation between cultures about 0.3); most hits were seen in one culture only. Human sequences are the Swiss-Prot entries looked up by gene name; the clone may be another isoform. NSP2 values were corrected by the authors for a growth advantage. Listed are human proteins with a hit and a random twelfth of the others.

B1: SECISBP2, Q96T21 (protein)
chain: MASEGPREPESEGIKLSADVKPFVPRFAGLNVAWLESSEACVFPSSAATYYPFVQEPPVTEQKIYTEDMAFGASTFPPQYLSSEITLHPYAYSPYTLDSTQNVYSVPGSQYLYNQPSCYRGFQTVKHRNENTCPLPQEMKALFKKKTYDEKKTYDQQKFDSERADGTISSEIKSARGSHHLSIYAENSLKSDGYHKRTDRKSRIIAKNVSTSKPEFEFTTLDFPELQGAENNMSEIQKQPKWGPVHSVSTDISLLREVVKPAAVLSKGEIVVKNNPNESVTANAATNSPSCTRELSWTPMGYVVRQTLSTELSAAPKNVTSMINLKTIASSADPKNVSIPSSEALSSDPSYNKEKHIIHPTQKSKASQGSDLEQNEASRKNKKKKEKSTSKYEVLTVQEPPRIEDAEEFPNLAVASERRDRIETPKFQSKQQPQDNFKNNVKKSQLPVQLDLGGMLTALEKKQHSQHAKQSSKPVVVSVGAVPVLSKECASGERGRRMSQMKTPHNPLDSSAPLMKKGKQREIPKAKKPTSLKKIILKERQERKQRLQENAVSPAFTSDDTQDGESGGDDQFPEQAELSGPEGMDELISTPSVEDKSEEPPGTELQRDTEASHLAPNHTTFPKIHSRRFRDYCSQMLSKEVDACVTDLLKELVRFQDRMYQKDPVKAKTKRRLVLGLREVLKHLKLKKLKCVIISPNCEKIQSKGGLDDTLHTIIDYACEQNIPFVFALNRKALGRSLNKAVPVSVVGIFSYDGAQDQFHKMVELTVAARQAYKTMLENVQQELVGEPRPQAPPSLPTQGPSCPAEDGPPALKEKEEPHYIEIWKKHLEAYSGCTLELEESLEASTSQMMNLNL
B2: RAD51D, O75771 (protein)
chain: MGVLRVGLCPGLTEEMIQLLRSHRIKTVVDLVSADLEEVAQKCGLSYKALVALRRVLLAQFSAFPVNGADLYEELKTSTAILSTGIGSLDKLLDAGLYTGEVTEIVGGPGSGKTQVCLCMAANVAHGLQQNVLYVDSNGGLTASRLLQLLQAKTQDEEEQAEALRRIQVVHAFDIFQMLDVLQELRGTVAQQVTGSSGTVKVVVVDSVTAVVSPLLGGQQREGLALMMQLARELKTLARDLGMAVVVTNHITRDRDSGRLKPALGRSWSFVPSTRILLDTIEGAGASGGRRMACLAKSSRQPTGFQEMVDIGTWGTSEQSATLQGDQT
B3: SENP8, Q96LD8 (protein)
chain: MDPVVLSYMDSLLRQSDVSLLDPPSWLNDHIIGFAFEYFANSQFHDCSDHVSFISPEVTQFIKCTSNPAEIAMFLEPLDLPNKRVVFLAINDNSNQAAGGTHWSLLVYLQDKNSFFHYDSHSRSNSVHAKQVAEKLEAFLGRKGDKLAFVEEKAPAQQNSYDCGMYVICNTEALCQNFFRQQTESLLQLLTPAYITKKRGEWKDLITTLAKK
B4: SLC35D2, Q76EJ3 (protein)
chain: MTAGGQAEAEGAGGEPGAARLPSRVARLLSALFYGTCSFLIVLVNKALLTTYGFPSPIFLGIGQMAATIMILYVSKLNKIIHFPDFDKKIPVKLFPLPLLYVGNHISGLSSTSKLSLPMFTVLRKFTIPLTLLLETIILGKQYSLNIILSVFAIILGAFIAAGSDLAFNLEGYIFVFLNDIFTAANGVYTKQKMDPKELGKYGVLFYNACFMIIPTLIISVSTGDLQQATEFNQWKNVVFILQFLLSCFLGFLLMYSTVLCSYYNSALTTAVVGAIKNVSVAYIGILIGGDYIFSLLNFVGLNICMAGGLRYSFLTLSSQLKPKPVGEENICLDLKS
B5: SGMS2, Q8NHU3 (protein)
chain: MDIIETAKLEEHLENQPSDPTNTYARPAEPVEEENKNGNGKPKSLSSGLRKGTKKYPDYIQIAMPTESRNKFPLEWWKTGIAFIYAVFNLVLTTVMITVVHERVPPKELSPPLPDKFFDYIDRVKWAFSVSEINGIILVGLWITQWLFLRYKSIVGRRFCFIIGTLYLYRCITMYVTTLPVPGMHFQCAPKLNGDSQAKVQRILRLISGGGLSITGSHILCGDFLFSGHTVTLTLTYLFIKEYSPRHFWWYHLICWLLSAAGIICILVAHEHYTIDVIIAYYITTRLFWWYHSMANEKNLKVSSQTNFLSRAWWFPIFYFFEKNVQGSIPCCFSWPLSWPPGCFKSSCKKYSRVQKIGEDNEKST

What follows are binders tested against SARS-CoV-2 M (assay: yeast fitness gain over the viral ORF with no human partner (scaled fitness); higher = more likely to interact).
Procedure: (§1)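 Split mouse DHFR complementation in pooled diploid yeast: human ORFeome clones carry one fragment and viral ORFs the other; barcoded lineages compete in 1 µg/mL methotrexate and fitness is read by barcode sequencing in up to three cultures.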

| Binder | yeast fitness gain |
| --- | --- |
| B1 | inactive: -0.176 |
| B2 | inactive: -0.0685 |
| B3 | inactive: -0.124 |
| B4 | inactive: -0.0307 |
| B5 | inactive: -0.0778 |

These binders were tested against SARS-CoV-2 NSP1 in the same assay as above.
Procedure: as §1

| Binder | yeast fitness gain |
| --- | --- |
| B1 | inactive: 0.0826 |
| B4 | inactive: -0.0523 |
| B5 | inactive: -0.0835 |

Each binder was assayed against SARS-CoV-2 NSP10 in the same assay as above.
Procedure: as §1

| Binder | yeast fitness gain |
| --- | --- |
| B1 | inactive: -0.107 |
| B4 | inactive: 0.0513 |
| B5 | inactive: -0.0111 |

The binders below were run against SARS-CoV-2 NSP12 in the same assay as above.
Procedure: as §1

| Binder | yeast fitness gain |
| --- | --- |
| B1 | inactive: -0.00994 |
| B3 | inactive: -0.0249 |
| B4 | inactive: -0.117 |
| B5 | inactive: -0.059 |

These binders were tested against SARS-CoV-2 NSP13 in the same assay as above.
Procedure: as §1

| Binder | yeast fitness gain |
| --- | --- |
| B1 | inactive: -0.0309 |
| B3 | inactive: -0.00241 |
| B4 | inactive: -0.0214 |
| B5 | inactive: -0.104 |

What follows are binders tested against SARS-CoV-2 NSP2 in the same assay as above.
Procedure: as §1

| Binder | yeast fitness gain |
| --- | --- |
| B1 | inactive: -0.154 |
| B3 | inactive: -0.392 |
| B4 | inactive: -0.108 |
| B5 | inactive: -0.0395 |

Each binder was assayed against SARS-CoV-2 NSP5 in the same assay as above.
Procedure: as §1

| Binder | yeast fitness gain |
| --- | --- |
| B1 | inactive: -0.0299 |
| B3 | inactive: 0.00397 |
| B4 | inactive: -0.112 |
| B5 | inactive: -0.16 |

Each binder was assayed against SARS-CoV-2 ORF10 in the same assay as above.
Procedure: as §1

| Binder | yeast fitness gain |
| --- | --- |
| B1 | inactive: 0.0228 |
| B3 | inactive: -0.13 |
| B4 | inactive: -0.0211 |
| B5 | inactive: -0.0171 |

The binders below were run against SARS-CoV-2 ORF3B in the same assay as above.
Procedure: as §1

| Binder | yeast fitness gain |
| --- | --- |
| B1 | inactive: -0.114 |
| B3 | inactive: -0.197 |
| B4 | inactive: 0.00795 |
| B5 | inactive: -0.012 |

The binders below were run against SARS-CoV-2 ORF6 in the same assay as above.
Procedure: as §1

| Binder | yeast fitness gain |
| --- | --- |
| B1 | inactive: 0.0443 |
| B3 | inactive: 0.0688 |
| B4 | inactive: 0.0275 |
| B5 | inactive: -0.0298 |

What follows are binders tested against SARS-CoV-2 ORF8 in the same assay as above.
Procedure: as §1

| Binder | yeast fitness gain |
| --- | --- |
| B1 | inactive: -0.0699 |
| B3 | inactive: -0.0149 |
| B4 | inactive: 0.00859 |
| B5 | inactive: -0.057 |

Each binder was assayed against SARS-CoV-2 ORF9B in the same assay as above.
Procedure: as §1

| Binder | yeast fitness gain |
| --- | --- |
| B1 | inactive: -0.122 |
| B3 | inactive: -0.0146 |
| B4 | inactive: 0.0221 |
| B5 | inactive: -0.00385 |

Each binder was assayed against SARS-CoV-2 S in the same assay as above.
Procedure: as §1

| Binder | yeast fitness gain |
| --- | --- |
| B1 | inactive: 0.00997 |
| B3 | inactive: -0.365 |
| B4 | inactive: 0.00385 |
| B5 | inactive: 0.000705 |

These binders were tested against SARS-CoV-2 NSP15 in the same assay as above.
Procedure: as §1

| Binder | yeast fitness gain |
| --- | --- |
| B2 | inactive: -0.294 |
| B4 | inactive: 0.0828 |
| B5 | inactive: -0.000301 |

The binders below were run against SARS-CoV-2 NSP16 in the same assay as above.
Procedure: as §1

| Binder | yeast fitness gain |
| --- | --- |
| B2 | inactive: 0.17 |
| B5 | inactive: -0.341 |

Each binder was assayed against SARS-CoV-2 NSP6 in the same assay as above.
Procedure: as §1

| Binder | yeast fitness gain |
| --- | --- |
| B2 | inactive: -0.0055 |
| B3 | inactive: -0.136 |
| B4 | inactive: -0.0152 |
| B5 | inactive: -0.0892 |

Each binder was assayed against SARS-CoV-2 NSP7 in the same assay as above.
Procedure: as §1

| Binder | yeast fitness gain |
| --- | --- |
| B2 | inactive: -0.0238 |
| B3 | inactive: -0.0304 |
| B4 | inactive: 0.0821 |

The binders below were run against SARS-CoV-2 NSP9 in the same assay as above.
Procedure: as §1

| Binder | yeast fitness gain |
| --- | --- |
| B2 | inactive: 0.0873 |
| B4 | inactive: 0.0595 |
| B5 | inactive: -0.0548 |

Each binder was assayed against SARS-CoV-2 ORF9Bwu (the 73-codon ORF) in the same assay as above.
Procedure: as §1

| Binder | yeast fitness gain |
| --- | --- |
| B2 | inactive: 0.0552 |

What follows are binders tested against SARS-CoV-2 ORF3A in the same assay as above.
Procedure: as §1

| Binder | yeast fitness gain |
| --- | --- |
| B3 | inactive: -0.102 |
| B5 | inactive: 0.00584 |

These binders were tested against SARS-CoV-2 ORF7B in the same assay as above.
Procedure: as §1

| Binder | yeast fitness gain |
| --- | --- |
| B3 | inactive: 0.0518 |
| B4 | inactive: -0.000854 |
| B5 | active: 0.644 |

The binders below were run against SARS-CoV-2 NSP4 in the same assay as above.
Procedure: as §1

| Binder | yeast fitness gain |
| --- | --- |
| B4 | inactive: -0.323 |

What follows are binders tested against SARS-CoV-2 NSP8 in the same assay as above.
Procedure: as §1

| Binder | yeast fitness gain |
| --- | --- |
| B4 | inactive: -0.0677 |
| B5 | inactive: 0.0271 |

The binders below were run against SARS-CoV-2 ORF7A in the same assay as above.
Procedure: as §1

| Binder | yeast fitness gain |
| --- | --- |
| B4 | inactive: -0.136 |
| B5 | inactive: 0.0967 |
